The list shows a part of the results.
The sequences below were run on PF3D7_0420300 AP2 domain 1 (GST-tagged) (assay: gcPBM binding intensity (ln(normalized median fluorescence intensity)); higher = stronger DNA binding).
In short: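 The binding buffer was 1× PBS containing 1% milk, 0.2 mg/ml BSA, 0.5% salmon testes DNA and 0.03% Triton X-100. In it, GST-tagged P. falciparum DNA-binding domains expressed in E. coli were applied for 1 h to an Agilent 4 × 180k array of primer-extended double-stranded 36-bp intergenic genomic probes plus negative controls. Binding intensity, read with Alexa488 anti-GST antibody and a 488 nm scan, is the highest Masliner-normalised natural-log median intensity across replicate spots of either probe orientation.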

Sequence | gcPBM binding intensity (ln)
GAAAAAAAAGCTTGCACACGTATTTGCTTTATGTAT [CACACA_site4931] | 9.47
TACATATATATATTATGTACATAAGGTTTGAGTTCA [XGTACX_site2726] | 9.33
TTTTTGGTATTATTGTGTACTTATAAATAATATAAT [XGTACX_site4019] | 9.31
ATATAAAATATTACGTGTACACATAAATAAAAATAA [XGTACX_site3746] | 9.41
ATATATATAAATAATTGTACATAATAATAAAATATA [XGTACX_site4839] | 9.31
ATATTTTGTAACTATACACACATATTTATATTATAA [CACACA_site7433] | 9.58
CAAGTAGATATTATACGTACATATATATATATATAT [XGTACX_site8349] | 9.11
TTTTATACATATTTTACACACTAAAATATACCTATA [CACACA_site6286] | 9.47
TAAAAAATATACATTCGTACATATATATTATATATA [XGTACX_site7918] | 9.11
ACAAAATAAAACATCTGTACATATTATTATTATAAG [XGTACX_site4802] | 9.2
TATATTTATAACAACACACACAGATCATAAAACTGC [CACACA_site7086] | 10
AAAAAAAAAAAAAAAACACACACATGCACATCATAT [CACACA_site8083] | 9.86
CAAAAGTAAGCACGCACACACAACATGAAATAAAAT [CACACA_site165] | 9.97
TATACACTTATTGGTGGTACAATATATAAATATATG [XGTACX_site3289] | 9.12
TTTTGATCTGAAGGAACCTAAAAAGGGAAGAGAAAA [CACACA_negctrl_site1656] | 9.1
TATATATATATTTATACACACACATATATTTATATA [CACACA_site8054] | 9.59
TTTTTAATATATTAGGTGCACAATAATACACTTTAT | 9.09
ATTAGTATAATGTAACTTAGTTAATAGTGCTAATAT [CACACA_negctrl_site764] | 9.41
TTTTTTTAATGATATTGTACATTAATAAAAAATATG [XGTACX_site1719] | 8.81
ATTTGATATATAATAATACACACTTACATAATTAAT [CACACA_site290] | 9.42
TCTTTTTCAAGATGACGTACTTAGATTAATATAAAA [XGTACX_site3931] | 8.86
ATATGATCATTTTATCATTTTGCTTTTTCTTTTTTT [CACACA_negctrl_site1325] | 9.45
AATTTTGGAACGTGCACACATATGTAATATATATAT [CACACA_site3067] | 9.53
ATCGTGTTAAATGTTGTGCACATATAAATTACAAAA [GTGCAC_site9822] | 9.23
TAAATATATAATAAATGTACATATTAATATTATGGT [XGTACX_site1498] | 9.3
